Measurements published in patent US20140187491A1 (Bayer, published 2014).

T1: human LGR7/RXFP1 receptor (human, UniProt Q9HBX9 1-757)
T1 sequence (looked up): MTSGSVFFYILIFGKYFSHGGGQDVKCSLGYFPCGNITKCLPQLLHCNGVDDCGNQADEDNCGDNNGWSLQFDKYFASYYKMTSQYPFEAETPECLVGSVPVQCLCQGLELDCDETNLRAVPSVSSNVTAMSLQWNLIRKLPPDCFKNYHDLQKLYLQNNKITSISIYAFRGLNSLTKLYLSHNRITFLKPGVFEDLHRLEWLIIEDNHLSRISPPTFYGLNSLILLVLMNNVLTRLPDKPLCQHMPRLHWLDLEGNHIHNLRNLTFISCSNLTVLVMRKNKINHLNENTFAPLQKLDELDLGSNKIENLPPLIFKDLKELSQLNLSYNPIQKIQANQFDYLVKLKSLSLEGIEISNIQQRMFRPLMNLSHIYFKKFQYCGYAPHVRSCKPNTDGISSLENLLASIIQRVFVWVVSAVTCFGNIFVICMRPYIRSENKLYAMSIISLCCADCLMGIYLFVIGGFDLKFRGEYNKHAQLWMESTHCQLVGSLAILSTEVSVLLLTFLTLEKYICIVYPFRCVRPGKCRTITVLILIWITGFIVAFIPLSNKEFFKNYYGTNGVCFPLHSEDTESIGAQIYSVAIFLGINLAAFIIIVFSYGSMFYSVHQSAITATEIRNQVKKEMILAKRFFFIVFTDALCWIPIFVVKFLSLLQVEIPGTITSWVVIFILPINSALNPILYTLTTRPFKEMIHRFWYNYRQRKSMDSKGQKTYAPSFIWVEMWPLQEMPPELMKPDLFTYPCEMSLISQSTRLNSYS

B1: scR-Fc 1 (Fc fusion)
chain: EQKLISEEDLQLYSALANKCCHVGCTKRSLARFCGGGSGGGSGSWMEEVIKLCGRELVRAQIAICGMSTWSIEGRMD[letters of human IgG1 Fc with S219A (EU numbers) omitted]
B2: scR-Fc 2 (Fc fusion)
chain: QLYSALANKCCHVGCTKRSLARFCGGGSGGGSGSWMEEVIKLCGRELVRAQIAICGMSTWSGGSP[letters of human IgG1 Fc omitted]
B3: scR-Fc 3 (Fc fusion)
chain: QLYSALANKCCHVGCTKRSLARFCGGGSGGGSGSWMEEVIKLCGRELVRAQIAICGMSTWSGGSGGSP[letters of human IgG1 Fc omitted]
B4: scR-Fc 4 (Fc fusion)
chain: QLYSALANKCCHVGCTKRSLARFCGGGSGGGSGSWMEEVIKLCGRELVRAQIAICGMSTWSGGSGGSGGSP[letters of human IgG1 Fc omitted]
B5: scR-Fc 5 (Fc fusion)
chain: [letters of human IgG1 Fc omitted]GGSPQLYSALANKCCHVGCTKRSLARFCGGGSGGGSGSWMEEVIKLCGRELVRAQIAICGMSTWS
B6: scR-Fc 6 (Fc fusion)
chain: [letters of human IgG1 Fc omitted]GGSGGSPQLYSALANKCCHVGCTKRSLARFCGGGSGGGSGSWMEEVIKLCGRELVRAQIAICGMSTWS
B7: scR-Fc 7 (Fc fusion)
chain: [letters of human IgG1 Fc omitted]GGSGGSGGSPQLYSALANKCCHVGCTKRSLARFCGGGSGGGSGSWMEEVIKLCGRELVRAQIAICGMSTWS
B8: scR-Fc 14 (Fc fusion)
chain: QLYSALANKCCHVGCTKRSLARFCGGGSGGGSGSWMEEVIKLCGRELVRAQIAICGMSTWS[letters of human IgG1 Fc omitted]
B9: scR-Fc 15 (Fc fusion)
chain: QLYSALANKCCHVGCTKRSLARFCGGGSGGGSGSWMEEVIKLCGRELVRAQIAICGMSTWSGSGSGS[letters of human IgG1 Fc omitted]
B10: scR-Fc 16 (Fc fusion)
chain: QLYSALANKCCHVGCTKRSLARFCGGGSGGGSGSWMEEVIKLCGRELVRAQIAICGMSTWSGSGSGS[letters of human IgG1 Fc with C226A C229A (EU numbers) omitted]

The binders below were run against T1, human LGR7/RXFP1 receptor (assay: cell-based or functional assay).
For B1, the “EC50 (M), CRE-luciferase reporter in CHO-CRE-LGR7 cells” value (“EC50 (M), CRE-luciferase reporter” below) was 1.3e-08 M.
B2 was tested, and the “EC50 (M), CRE-luciferase reporter” value was 3.3e-09 M.
In the case of B3, the “EC50 (M), CRE-luciferase reporter” value is reported as 2.4e-09 M.
For B4, the “EC50 (M), CRE-luciferase reporter” value was 3.1e-09 M.
In the case of B5, the “EC50 (M), CRE-luciferase reporter” value is reported as 1.3e-10 M.
With B6 the “EC50 (M), CRE-luciferase reporter” value was 4.2e-10 M.
In the case of B7, the “EC50 (M), CRE-luciferase reporter” value is reported as 7.4e-10 M.
For B8, the “EC50 (M), CRE-luciferase reporter” value was 3.9e-07 M.
With B9 the “EC50 (M), CRE-luciferase reporter” value was 3.4e-09 M.
In the case of B10, the “EC50 (M), CRE-luciferase reporter” value is reported as 2.5e-09 M.
